B1: CPEB3 Ribozyme (parent)
chain: UAACAGGGGGCCACAGCAGAAGCGUUCACGUCGCAGCCCCUGUCAGAUUCUGGUGAAUCUGCGAAUUCUGCUGUAUAUCUC

Read counts are not given, so values of variants with three or more changes are uncertain.

Variants of B1 are the subject of the series. Kind of series: self-cleavage, relative activity (ratio to wild type); higher = more cleavage; in vitro, sequencing. The gist of the method: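 Libraries of CPEB3 self-cleaving ribozyme mutants came from rounds of error-prone PCR and carried barcodes, which DNA sequencing matched to variants. In vitro transcription used T7 RNA polymerase at 37°C for 5 hours, with a further 15 min in DNase I before EDTA stopped the reaction; the ribozymes cleaved during both steps. The RNA was reverse transcribed with template switching and sequenced on Illumina. Relative activity is the cleaved/total read fraction of a variant divided by that of the unmutated ribozyme, averaged over three batches with at least 5 reads.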
For A18G G33A U58C, the self-cleavage was 0.16. A18G U25C U69C U74A: the self-cleavage was 0.11. As for A18G A28G U49C A75G, the self-cleavage amounted to 0.07. As to A18G U51C G52U C68U, the self-cleavage is 0.43. As for A18G U54C C59U U67C, the self-cleavage is 0.07.

Consider A18G A64U C71U, for which the self-cleavage amounted to 0.45. As for A18G A64G U74C, the figure is 0.76; as for A18G G30U A47U, 0.21. As for A18U A35U U48C A75G, the figure is 0.03; as for A18G U66C U80A, 0.28. With A18U G53A A65U, the self-cleavage was found to be 0.12. As for A18G G30A A56G, the figure is 0.14; as for A18U A28G A65G U69G U76C, 0.1; as for A18G U41C U78A, 0.74. As for A18G U51C U66C U69C, the figure is 0.28; as for A18G A56G A57G, 0.14; as for A18G U25A U69C U78A, 0.1. As for A18G G70A U72C, the figure is 0.34; as for A18G C27A U67A, 0.12. As for A18G G22C A45U G52U, the self-cleavage came to 0.09.

Take A18G U25C G61C U66C U69C: the self-cleavage came out at 0.14. As for A18G U48A U66C A75G, the figure is 0.13; as for A18G C23A U25C U41C U54C U78C, 0.27. A18U A28G A35U A77G: the self-cleavage is 0.24. Turning to A18U A20U U48C, the self-cleavage came out at 0.18. As for A18U A20U C29U, the figure is 0.15; as for A18G A45U U66C, 0.27.

Regarding A18G A65C U80A, the self-cleavage is 0.29. As for A18U C27A C34G C40U U51A U74C, the figure is 0.14. As for A18G A21G C23U A28U, the self-cleavage was 0.25. In the case of A18G A21G U51G C62U U78C, the self-cleavage stood at 0.19.

Consider A18G U31G U54A, for which the self-cleavage is 0.43.

Take A18G U25A G33A: the self-cleavage worked out at 0. As for A18U A20G U41C, the figure is 0.15. As for A18G A28C U43C, the figure is 0.27. As for A18G A45U U48C U51A U54A A56G U60C, the figure is 0.23. As for A18U A35G C37A G61A, the self-cleavage worked out at 0.24. As for A18G C32U A35G A45G U72A, the figure is 0.22. As for A18G U26C U31C C44G, the figure is 0.34; as for A18G U41C U69C U80A, 1.14; as for A18G A56G C59U U72C G73A, 0.2. With A18U C29A A35G G55U A56C U76C, the self-cleavage came out at 0.13. As for A18G U41G U74A, the figure is 0.11. As for A18G U41A U43A U58A U67C U69A U80C, the figure is 0.03; as for A18G U41A U51C U72C, 0.11. As for A18G C38U A65U, the figure is 0.13; as for A18U C38G U80C, 0.2. Turning to A18G A56G U58C, the self-cleavage was 0.24. As for A18G A57U U66G, the figure is 0.19; as for A18U U25C A45G A56G, 0.06.

For the variant A18G A35G U41A C59A U67C A77G U80C, the self-cleavage amounted to 0.07. As to A18G U72A A77U U78C, the self-cleavage worked out at 0.23. For A18G U58C C59U U78C, the self-cleavage is 0.19. As for A18G A28U A57U, the figure is 0.25; as for A18G U31C U49C A57U, 0.11. As for A18G U25A G36U U54A A64U U72A, the figure is 0.05; as for A18G C23A U26A A65G U72G, 0.13; as for A18G A45G U58C U69A, 0.29. As for A18G U31A U67C, the figure is 0.11.

As for A18U C44U U60A, the self-cleavage turned out to be 0.28. In the case of A18U C44U U60C, the self-cleavage turned out to be 0.04. As for A18G A64U U67C, the figure is 0.14; as for A18U G33C U43A A56G C81A, 0.26; as for A18U C32U U43G, 0.2. As for A18G U25C U72C, the self-cleavage is 0.18. For A18G C50U U76C U80C, the self-cleavage was 0.94. As for A18G C27U A57G, the figure is 0.11. As for A18U A45U A47G, the figure is 0.17; as for A18U U25C A35G U41C U76C A77G, 0.05. As for A18U A28U U78C, the figure is 0.21; as for A18U G70C U80G, 0.14. Regarding A18U A20G A45U A56U U60A, the self-cleavage is 0.35.

Turning to A18U G33A U41A U54C, the self-cleavage came out at 0.12. Turning to A18G A28C U54G, the self-cleavage stood at 0.24. As for A18U A28U A35G A56G U69C, the figure is 0.69; as for A18G U49C U66C, 0.17. As for A18G A28G A47G C68A, the figure is 0.08; as for A18G U43A C50U U74A U78C, 0.78; as for A18G U49A G70U, 0.17. As for A18G U31C U67C, the figure is 0.07; as for A18U A28U U31A A64U, 0.15; as for A18U G70A U72C, 0.4. As for A18G U48A U49C, the self-cleavage was determined as 0.44.

For the origin of these results see the RNAGym collection of RNA variant scans (doi:10.1093/nar/gkz1192).
